# Measurements published in ChEMBL document CHEMBL4888484, “Replenishing the malaria drug discovery pipeline: Screening and hit evaluation of the MMV Hit Generation Library 1 (HGL1) against asexual blood stage Plasmodium falciparum ,using a nano luciferase reporter read-out” (2022).
# About 540 (0.36%) of roughly 150,000 compounds showed an effect of 50% or more. The list shows a part of the results.
# Test system: Plasmodium falciparum
# Assay: Primary screen in NF54 nanoGlo assay, in single point, at 2uM, 72h; a lower Z score goes with more inhibition
# Type: functional, Erythrocyte
# Settings: timepoint 72 hour
SMILES,% Inhibition,Z score
COc1cc(-c2cnc(N)cc2C)c(Cl)cn1,5%,-0.65
CN(C)c1cc(C(=O)Nc2[nH]ncc2-c2cccc(Cl)c2)ccn1,-3%,0.42
Cc1ccc2nc(O)c(CCC(=O)NCc3cccnc3)cc2c1,-1%,0.11
CN1C(=O)NC(C)(C2CCCN(CC(O)c3cccc(F)c3)C2)C1=O (stereo unspecified),-2%,0.3
CN(Cc1ccncc1)Cc1csc(-c2cccs2)n1,1%,-0.18
CC(C)CN1CCN(S(=O)(=O)c2cc(Cl)sc2Cl)CC1,-11%,1.38
Cc1nc2ccc(N3C[C@@H](C(N)=O)CC3=O)cc2s1,-7%,0.97
COc1ccc(CC(=O)n2nc(-c3cccc(C)c3)nc2N)cc1OC,-9%,1.53
N#CCNC(=O)CC[C@@H](Cc1ccc(Cl)cc1)C(=O)NCC#N,-1%,0.21
COC(=O)CCN(C(=O)c1cccc(NC(=O)OC)c1)C1CCOCC1,-9%,1.18
c1ccc(C2(c3nc(C[C@H]4CCCO4)no3)CC2)cc1,-9%,1.1
CCn1cc(CN2CCCC23CCN(c2cccc(C)n2)CC3)cn1,2%,-0.37
CCc1nc(C)c(CN2CCC(CCC(=O)Nc3ccccc3)CC2)[nH]1,-13%,1.86
Cc1nc(Cn2nnc(NC(=O)c3cccc(F)c3)c2C)no1,36%,-0.91
Cc1ccc(C)c(-n2ncc3c(N4CCCCCC4)ncnc32)c1,-18%,2.1
CC(Oc1ccc2c(c1)CCC2)C(=O)N1CCCC1c1ccncc1 (stereo unspecified),-14%,1.74
CC1(C)c2[nH]c3ccccc3c2C[C@H]2C(=O)N(CC3CCCO3)CC(=O)N21 (stereo partly specified),-1%,0.16
O=S(=O)(Nc1ccc(-c2ccno2)cc1)c1ccc(-c2cnc(C3CC3)o2)cc1,-6%,1.2
O=C(c1coc2ccccc12)N(CCO)Cc1cccnc1,-4%,0.33
Cc1noc(C)c1C(=O)Nc1ccncc1,-5%,0.79
O=C([C@@H]1C[C@H](F)CN1S(=O)(=O)c1cc(F)ccc1F)N1CCc2ccccc21,-4%,0.52

SMILES,% Inhibition,Z score
Cc1cc(NC(=O)Nc2ccc3c(c2)OCCO3)n(C)n1,5%,-0.65
CCN(c1nc2nc(C)c(Cl)c(C)n2n1)S(=O)(=O)c1ccc(C)cc1,-1%,0.17
Cc1nc([C@H](C)NC(=O)c2coc(COc3ccccc3F)n2)c(C)s1,-7%,0.99
CCn1cc(Br)c(CC#N)n1,32%,-3.63
CCOC1CC(c2nc(-c3cccc(C(=O)N(C)C)c3)no2)C1 (stereo unspecified),-15%,1.89
C/C(=C\c1cc(Cl)ccc1O)CN1CC[C@@](N)(C(=O)O)C1,-8%,1.04
CCc1cc(C2CC2)nc(NS(=O)(=O)c2cnn(CC3CC3)c2)n1,-12%,1.53
CCOCCn1nc(C)cc1C(=O)N[C@H]1C[C@@H](c2cc(=O)[nH]c(N)n2)C1,-25%,3.15
COc1nccc(CN[C@@]2(CO)CCCc3ccccc32)c1F,6%,-0.63
CCOc1cccc(-c2noc(-c3nnn(Cc4nc(-c5ccccc5OC)oc4C)c3C)n2)c1,-5%,0.76
CCOC1CCN(C(=O)N[C@H](c2ccc(F)cc2)C2CCC2)CC1,-7%,0.84
NC(=O)c1cc(Cl)cc(S(=O)(=O)N2CCOCC23CCC3)c1,-4%,0.33
CCN1CCN(C[C@@H]2CN(c3ccc(Cl)cn3)C[C@@H]2CO)CC1,-10%,1.36
CCc1c(C)c(C(=O)N[C@@H](C)c2ccccc2)n(Cc2ccc(C)cc2)c1C,-6%,1.04
Cc1[nH]c2ccccc2c1C(c1ccc(Br)o1)c1c(C)[nH]c2ccccc12,10%,-1.07
O[C@H]1[C@H](NCc2ccco2)[C@H]2CO[C@H](O2)[C@@H]1N1CCCCC1,31%,-3.5
Cc1c(C(=O)Nc2ccc(Oc3ccncc3)c(Cl)c2)nnn1[C@H]1CCNC1,6%,-1.15
c1cn2c(n1)CN(Cc1nc(-c3ccsc3)no1)CC2,1%,-0.21
Cc1sc(-c2noc(C3CC3)n2)cc1NC(=O)c1ccc2c(c1)OCO2,-1%,0.06
CCc1ccc(-c2ccc(=O)n(CCc3nc(-c4ccccc4)no3)n2)cc1,-3%,0.57
Cc1ccc(NC(=O)CC(=O)N2CCN(Cc3ccc4c(c3)OCO4)C(=O)C2)cc1,-8%,1.62

SMILES,% Inhibition,Z score
O=C(c1c[nH]c2ncc(Br)cc12)N1C[C@@H]2[C@@H](CF)[C@@H]2C1,-1%,0.1
Cc1ccc2nnc(-c3ccccc3)c(C(=O)Nc3ccc(F)cc3Cl)c2c1,-7%,0.84
Cc1cc2c(cc1C)NC1(CCCCCC1)C(NCc1ccc3c(c1)OCO3)=N2,-6%,0.73
CCN(CCC(F)(F)F)S(=O)(=O)N1CC(C)OCC1C (stereo unspecified),-3%,0.49
CO[C@@H](C)c1noc(CN(C)C(=O)c2ccc(Cl)c3occc23)n1,-10%,1.29
CN1CCCCC[C@H]1C(=O)NC1(C)CCCCCC1,5%,-0.81
Cc1cc(F)c(CN[C@H]2CCn3ccnc3C2)c(Cl)c1,-7%,1.31
CC(C)[C@H](C)N(C(=O)CNC(=O)c1ccc(F)cc1F)C1CC1,-10%,1.83
CC1Cc2cc(F)ccc2C(C)N1C(=O)c1cc(C(=O)O)ccn1 (stereo unspecified),4%,-0.51
COC(=O)N(C)c1ccc(N[C@H]2CCCN(c3ccccc3Cl)C2=O)cc1,13%,-1.52
CC(C)(c1noc(-c2ccc(S(C)(=O)=O)s2)n1)C1CCC1,-13%,1.95
Cc1ccccc1Cn1cnc2c1c(=O)n(C[C@H]1CCCO1)c(=O)n2-c1ccc(Cl)cc1,-21%,2.02
CCC(CC#N)NC(=O)C(C)(C)[C@H]1CCC[C@@H](C(F)(F)F)N1 (stereo partly specified),-4%,0.7
CC1CCC2C(C1)c1c(nc(O)n(Cc3ccccc3)c1=O)OC2(C)C (stereo unspecified),-2%,0.43
O=c1c2c(ccn1C[C@H]1CCCO1)ccn2Cc1cccnc1,-5%,0.86
COc1ccc(S(=O)(=O)N(CCC(=O)N2CCNCC2)Cc2ccc(C)cc2)cc1,5%,-0.85
CCOC(=O)C1(CC2CC2)CCN(Cc2ccc(C(=O)OC)cc2)CC1,-4%,0.52
CCC(=O)Nc1ccc(N2CCCN(C(=O)Nc3cccc(C(F)(F)F)c3)CC2)c(C(=O)NCc2ccc(F)cc2)c1,-16%,1.72
COc1ccc2c(c1)N1CCN(Cc3ccc(Cl)cc3)CC1C(C(=O)N1CCOCC1)C2 (stereo unspecified),-7%,0.86
O=C(CCc1cccs1)N1CCC(OC[C@H]2CCCO2)CC1,-7%,1.16
O=C(CCCCC(=O)Nc1nc(-c2ccccc2)cs1)Nc1nc(-c2ccccc2)cs1,-5%,0.53

SMILES,% Inhibition,Z score
CCCN(CCC)C(=O)Cn1c(=O)n(CCc2cccs2)c(=O)c2ccccc21,-16%,2.53
CCN1CCN(CCC(=O)NC(C)(C)c2nc(C)cs2)CC1,6%,-0.9
Cc1cc(NCc2nc(CC(C)C)no2)nn1CC(F)(F)F,0%,0.04
Cc1nocc1CN1C[C@@H](F)C[C@H]1CO,-10%,1.15
Cc1cc(S(=O)(=O)N2CCC(=O)Nc3cccnc32)c(C)o1,1%,-0.09
Cn1cc(-c2csc(CC(=O)NCc3ccco3)n2)cn1,-5%,0.48
Nc1nn2cc(-c3cc4ccccc4o3)nc2c2ccccc12,-6%,1.22
CCn1nccc1CN1CC2CCCC2(C(=O)OC)C1 (stereo unspecified),-13%,1.5
O=C(NCc1noc(-c2cccc(F)c2)n1)c1cncc(N2CCOCC2)c1,0%,0
COc1c(C)cnc(CN2CCC(N(C)C(=O)Cc3cnn(C)c3)CC2)c1C,7%,-1.04
FC(F)(F)c1cccc(N2CCN(c3nc(-c4ccccc4)nc4sc(-c5ccccc5)cc34)CC2)c1,-8%,0.85
Cc1c(CC(=O)NCC(F)F)c2c(n1Cc1ccc(F)cc1)CCCC2=O,-9%,0.9
COc1cc(CC2CN(C(=O)c3ccc(=O)n(C)n3)C2)cc(OC)c1,-11%,1.49
COc1cccc(CC(=O)N2CCCCCCN(C)C(=O)[C@H]3CCC[C@H]32)c1,-12%,1.91
CCOCCn1ccnc1-c1cccnc1,-1%,0.14
Cc1csc(CN(C[C@H]2CCCO2)C(=O)Nc2cn(C)nn2)n1,-4%,0.55
COc1cc(OC)cc(C(=O)N/C(=N/c2ccc3c(c2)OCCO3)NC[C@H]2CCCO2)c1,-11%,0.98
Cc1cccc(OCC(O)CNC2C3CCCOC3C2(C)C)c1 (stereo unspecified),-10%,0.93
O=C(Nc1ccc(NC2CCOCC2)cc1)[C@@H](O)CC1CCCCC1,-11%,1.76
Cc1cc(C)cc(Nc2nc(-c3c[nH]c4ccccc34)cs2)c1,0%,0.07
